Data as given in the supplement of paper PMC10126150.
Sequences with one replicate were seen in a single cluster, so their values are uncertain.

System: ATP
Test: switch fluorescence ratio, 500 uM ATP over buffer (Cy3 cluster intensity, sum of 5 cycles each) (fold (ratio)); higher = stronger signal-on switching upon ATP binding; sequences stand for … in TCGTCGGCAGCGTCAGATGTGTATAAGAGACAGTTTTTTTTTTTTTTTTTTTTTTTTT…TC
Conditions: aptamer strand: ATP DNA aptamer (quencher-CACCTGGGGGAGTATTGCGGAGGAAGG + anchor), 100 nM annealed; ATP concentration: 500 uM; one replicate
In short: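 Five buffer/ATP imaging cycles were run on Cy3-labelled switching-strand clusters on a modified Illumina MiSeq flow-cell, with NaOH stripping and re-annealing between cycles. In each cycle, clusters annealed to 100 nM quencher-labelled ATP aptamer were imaged in selection buffer, then after 15 min with 500 uM ATP at 22 °C. Per cluster, the fluorescence ratio is summed target-cycle over summed buffer-cycle Cy3 intensity, averaged per switch-domain sequence. Only clusters within 100-1000 RFU were kept.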
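Also: ATP exposure 15 min at 22 °C before imaging.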

| Sequence | switch fluorescence ratio |
| --- | --- |
| TCCGGTGCCA | 0.965 |
| GGGCTGGCCG | 0.973 |
| TGGTACATCG | 1.02 |
| ATAGATATGG | 0.96 |
| TCTTTCACGA | 1.02 |
| TAATTTGCA | 1.02 |
| CGTAGCGCCC | 1.34 |
| TGCCCAGTTA | 1.01 |
| ATAGGGTGT | 1.02 |
| CGGCCTTTCT | 1.01 |
| TGGATACATC | 0.963 |
| CTCATGCCGA | 1.08 |
| CGTGAGATCC | 1 |
| ATTTGGTCAA | 1.02 |
| CAACACATGT | 1.02 |
| GGATAACGGT | 1.01 |
| CAATTGTAG | 0.987 |
| GTTTTAGTGA | 1.03 |
| GACTCCTTAT | 1.08 |
| GCATCTTTCA | 0.964 |
| CCCCGGCCGC | 1.21 |
| GGTTCCGTTG | 1 |
| TTCTTGCGAT | 1.12 |

| Sequence | switch fluorescence ratio |
| --- | --- |
| TACTTGATGG | 0.914 |
| TGGACATGGA | 0.998 |
| CGACGTTCGA | 1.04 |
| CCACCGGTG | 1.69 |
| CCAGTTAATC | 1.05 |
| AGCACTTCGT | 0.976 |
| AAGGTACGAG | 1.01 |
| TTGGGAACC | 0.98 |
| AAATTGTAGG | 0.992 |
| AAGTGCTCGC | 1.06 |
| CTCTTCCGTT | 0.956 |
| GGTAAGGAGT | 1 |
| AAAATGATTG | 0.99 |
| AGTCATACTT | 1.02 |
| GTGTCTAAAG | 1.03 |
| GATCGGTTCA | 1.02 |
| AGCAGCGCTA | 1.06 |
| AACACAGTCA | 1.05 |
| CTACAAATCG | 1.08 |
| CTGGCGTTGC | 2.54 |
| ACGACGGGCC | 1.1 |
| ACGCATCGCA | 1.09 |
| GATTGCCTG | 0.969 |

| Sequence | switch fluorescence ratio |
| --- | --- |
| TACCGAGTTT | 0.981 |
| GATCCTGCAT | 1.22 |
| CTTGCAGGCA | 1.03 |
| GTCATTTAGT | 0.981 |
| ACGCTAATGG | 1.48 |
| ATCACTATGG | 1.01 |
| GGAGGGTATT | 0.993 |
| AGTTTGAA | 1.03 |
| GTATGCTGTT | 1.03 |
| TAGCGCGCTC | 1 |
| TAGCGTATGC | 0.896 |
| TATTGGCCCT | 1.07 |
| ACAAGAAGAC | 1.1 |
| GATATGGGTC | 1.02 |
| GTTCTTGGGT | 0.966 |
| GAAGGCAGAG | 1.03 |
| GCGCATTTGT | 1 |
| CTTGTGACC | 0.964 |
| TGAATTACCA | 1.09 |
| ATTTCTCAT | 0.999 |
| CGTCCTCCCT | 1.15 |
| TGCACTAGCT | 0.932 |
| CCTTTAGTTG | 0.968 |

| Sequence | switch fluorescence ratio |
| --- | --- |
| CGGGCACGGA | 1.03 |
| ACATGGGATA | 1 |
| AGATCCCCAT | 1.03 |
| AGAGACGGAG | 0.966 |
| TCAGCTGT | 1.05 |
| TACAGGGAGC | 1.01 |
| GGGTACAAGT | 0.971 |
| CGACGGAACC | 3.26 |
| AGGCGGACCG | 0.921 |
| GTGCGCGCCA | 1.03 |
| TTAATGCCAC | 1.01 |
| CAGTACCGGT | 1.06 |
| CAAAGGATGT | 1.02 |
| TATCGCAGGG | 1.06 |
| ACCGGTGTGG | 0.995 |
| AAGTGCCTTT | 0.923 |
| GGGCTGGTCA | 1 |
| TCACAATTAT | 0.99 |
| GAATGTGCGG | 1.01 |
| ATGGGCACTG | 1.01 |
| GGCCGAGTAC | 1.04 |
| CTTACCGCCA | 1.35 |
| GGCATAGGAC | 1.06 |

| Sequence | switch fluorescence ratio |
| --- | --- |
| AAGGCTGCGT | 0.968 |
| GACGTAATTG | 1.03 |
| TCAATGAAGG | 0.97 |
| AATTCTTGCG | 0.975 |
| TTGGTAACGG | 1.04 |
| GGTATCCTCG | 0.993 |
| TAAGAACAAG | 0.985 |
| GGTAGGTACC | 0.983 |
| GGAAATGGTT | 1.02 |
| TAGTGTAATG | 1.02 |
| CCGATGTGAG | 1.21 |
| CACAAAGGA | 1.02 |
| TAATCTGTAG | 1.01 |
| GCATATACCA | 1.2 |
| CTGTCCTTGT | 1.01 |
| ATCAGAAGGC | 0.94 |
| CGGGATGGTA | 1.02 |
| AAAGCCCACG | 1.08 |
| AGATATCGAC | 1.06 |
| AGCGCTTAGC | 1.08 |
| TCGTTGAACT | 0.986 |
| TAGGTTTAAG | 0.998 |
| AATGAGAGTA | 0.976 |

| Sequence | switch fluorescence ratio |
| --- | --- |
| GTATATCAAT | 0.989 |
| ACCGGGTGCG | 1.05 |
| ATGGGTAAAG | 0.949 |
| AATCGAACCC | 1.03 |
| GTATTGTGCC | 0.991 |
| TGAAGGGTCT | 0.969 |
| TAAACAAGGA | 1.01 |
| ATCTCGTTTG | 0.934 |
| TATAAATCG | 0.974 |
| GGGTTAGGG | 1.06 |
| ACAGTAAAGC | 1.14 |
| GGTGAGTGTA | 0.987 |
| CATTTGGCGA | 1.03 |
| TAAGGGAGTC | 1.03 |
| CTGAGATGAT | 0.989 |
| CCGTTCACAG | 1.17 |
| GTGTGACC | 0.953 |
| GGAAAAACAC | 1.05 |
| TTGATGGATT | 1.04 |
| AACCAGGTGG | 1.47 |
| TCCGTCGGCT | 1.06 |
| AATTATACTT | 1.03 |
| CGGTTCCGTC | 1.03 |

| Sequence | switch fluorescence ratio |
| --- | --- |
| GGAATTATCA | 0.994 |
| TGGTATCTTT | 0.923 |
| CCAATAGTTA | 1 |
| GCCACTTCAA | 1.03 |
| GACTTCACT | 1.21 |
| TTGAGGGAAG | 1.01 |
| ATAGTTCCTG | 1.01 |
| ACGCTCTCGT | 0.971 |
| AGTAAGCCTG | 1.16 |
| TCTAGCTTCG | 1.04 |
| GGTATATACT | 1.05 |
| AGGGAGAGGC | 0.932 |
| AAATCCATAC | 1.22 |
| TTAAACTTGT | 0.986 |
| AATGTTAAGC | 0.947 |
| ACAAGGGCAA | 0.927 |
| GGTCTTGAA | 1 |
| AGGCGCTC | 0.967 |
| CGTCTCGATG | 1.02 |
